In paper PMC4336329 (PLoS ONE, 2015):
Hit rate of the full screen: of about 310,000 compounds, about 2,200 (0.71%) showed an effect of 50% or more. The effect is printed as a negative number. The list shows a part of the results.

These molecules were tested against human ether-à-go-go-related gene (hERG) potassium channel (human, UniProt Q12809) (assay: primary screen, population patch clamp on CHO cells stably expressing hERG).
Chain of human ether-à-go-go-related gene (hERG) potassium channel (Q12809 whole entry, looked up): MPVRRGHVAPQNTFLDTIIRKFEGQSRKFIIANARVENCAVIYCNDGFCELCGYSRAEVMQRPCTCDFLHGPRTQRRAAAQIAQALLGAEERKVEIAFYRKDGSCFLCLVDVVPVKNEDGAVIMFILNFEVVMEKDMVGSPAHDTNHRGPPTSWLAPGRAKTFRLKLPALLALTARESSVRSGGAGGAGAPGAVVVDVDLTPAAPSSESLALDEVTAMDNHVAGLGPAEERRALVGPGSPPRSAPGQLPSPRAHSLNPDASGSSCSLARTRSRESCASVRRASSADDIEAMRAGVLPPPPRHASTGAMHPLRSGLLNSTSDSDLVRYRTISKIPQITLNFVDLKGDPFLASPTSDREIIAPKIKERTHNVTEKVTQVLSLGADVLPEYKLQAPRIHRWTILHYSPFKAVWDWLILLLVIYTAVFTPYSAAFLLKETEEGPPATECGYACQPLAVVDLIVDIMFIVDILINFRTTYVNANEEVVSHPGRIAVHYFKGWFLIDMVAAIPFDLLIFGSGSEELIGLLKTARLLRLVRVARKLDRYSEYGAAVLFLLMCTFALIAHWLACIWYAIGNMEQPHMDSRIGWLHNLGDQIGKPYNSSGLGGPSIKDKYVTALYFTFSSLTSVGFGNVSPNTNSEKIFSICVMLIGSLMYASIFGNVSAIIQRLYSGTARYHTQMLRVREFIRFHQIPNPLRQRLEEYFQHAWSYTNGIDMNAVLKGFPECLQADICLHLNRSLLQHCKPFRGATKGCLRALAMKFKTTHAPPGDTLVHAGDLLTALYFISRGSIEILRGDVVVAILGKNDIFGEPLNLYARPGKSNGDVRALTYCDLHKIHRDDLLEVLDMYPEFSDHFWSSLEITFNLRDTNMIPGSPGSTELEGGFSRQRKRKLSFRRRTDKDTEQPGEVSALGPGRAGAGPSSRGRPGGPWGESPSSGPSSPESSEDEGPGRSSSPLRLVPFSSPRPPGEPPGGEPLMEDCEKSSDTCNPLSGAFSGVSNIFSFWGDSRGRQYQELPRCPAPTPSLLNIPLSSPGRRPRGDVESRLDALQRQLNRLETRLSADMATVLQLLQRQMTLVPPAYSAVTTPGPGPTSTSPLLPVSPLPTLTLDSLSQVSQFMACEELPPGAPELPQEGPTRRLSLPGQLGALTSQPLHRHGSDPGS

Row | SMILES | hERG current change (%, negative = inhibition) at 1uM [%]
1 | O=S(=O)(/C=C/c1ccccc1)N1CCN(c2nc(-c3cccnc3)nc3ccccc23)CC1 | 15.3
2 | CCN(CC(=O)Nc1sc2c(c1C#N)CCC(C)C2)Cc1nc2ccccc2c(=O)[nH]1 (stereo not drawn) | 4.41
3 | C#CCOCCOCCOCCNc1nc(N2CCOCC2)nc(N2CCN(C(=O)[C@H]([C@@H](C)CC)n3cc(CCC[NH+]=C(N)N)nn3)CC2)n1.[Cl-] | 5.31
4 | O=C(CCCc1ccccc1)Nc1nccs1 | 8.93
5 | CCN(CC)c1ccc(/C=N/NC(=O)c2ccc(Br)o2)cc1 | 5.56
6 | Cc1ccc(N(C(C)C(=O)Nc2ccccc2C(=O)N2CCOCC2)S(C)(=O)=O)cc1C (stereo not drawn) | 9.47
7 | Cc1ccc(S(=O)(=O)N2CCOCC2)cc1C(=O)NNC(=O)c1ccoc1C | 9.64
8 | CCOC(=O)c1c(C)n(C)c2ccc(OC(=O)c3ccco3)cc12 | 8.64
9 | CCOc1ccc(-c2nnc(N)o2)cc1 | 12.6
10 | Cc1cc(C)c(C)c(S(=O)(=O)N[C@@H](C)C(=O)OCC(N)=O)c1C | 9.21
11 | COc1ccc2[nH]c(=O)c(CN(C(C)=O)c3ccc(C)c(C)c3)cc2c1 | 7.2
12 | CCOC(=O)C1=C(C)N(C)C(C)=C(C(=O)OCC)C1c1ccccn1 | 12.5
13 | COCc1cc(C)nc(OCC(=O)N/N=C/c2ccc(C)o2)c1C#N | 12.2
14 | CCCN(C(=O)Cc1ccc(S(=O)(=O)N2CCOCC2)s1)c1c(N)n(Cc2ccccc2)c(=O)[nH]c1=O | 12.9
15 | O=C(Nc1ccc(Br)cc1)N1CCCCC1 | 6.36
16 | COc1ccc(N(CC(=O)NC(C)C)C(=O)CCC(=O)Nc2ccccn2)cc1 | 14.6
17 | O=C(O)c1ccc(NC(=O)c2ccccc2NC(=O)c2ccccc2Cl)cc1 | 14.5
18 | Cc1ccc2c(C)c(C(=O)N(C)Cc3nccn3C)oc2c1C | -0.734
19 | CCCCn1nnc(NC(=O)COc2cc(C)ccc2C(C)C)n1 | 9.26
20 | CC(C(=O)N1CCN(c2ccccc2)CC1)N1C(=O)C2CC=CCC2C1=O (stereo not drawn) | 10.3
21 | O=C(Nc1ccccc1)c1nnsc1S(=O)c1ccc(Cl)cc1 (stereo not drawn) | 12.9
22 | CC(C)(C)c1ccc(OCCC(=O)OCC(=O)Nc2ccc(N3CCOCC3)cc2)cc1 | 19

Row | SMILES | hERG current change (%, negative = inhibition) at 1uM [%]
23 | Cc1cc(C(=O)N2CCC(C(=O)O)CC2)c(C(F)(F)F)o1 | 14.6
24 | C=CCc1ccccc1OCCNCc1ccccc1.O=C(O)C(=O)O | 11.7
25 | CC1CCN(Cc2cc(=O)oc3ccc4ccccc4c23)CC1 | -2.55
26 | CCOC(=O)N1CCN(c2c(NCc3ccc(F)cc3)c(=O)c2=O)CC1 | 8.84
27 | COc1c(/C=N/Nc2ccc(C(=O)O)cc2)c(CCN(C)C(C)=O)cc2c1OCO2 | 5.59
28 | COc1ccc(C2SCC(=O)N2c2c(C)n(C)n(-c3ccccc3)c2=O)cc1OC (stereo not drawn) | 13.5
29 | COc1ccc(C2C(C(=O)c3ccc(C)o3)=C(O)C(=O)N2CC2CCCO2)cc1OC (stereo not drawn) | 17.5
30 | O=C(N/N=C\c1c(O)ccc2ccccc12)c1cncc(Br)c1 | 11.2
31 | CCOC(=O)CN1C(=O)S/C(=C/c2ccco2)C1=O | 13.3
32 | COc1cccc(NC(=O)N(CCN(C)C)C(C)c2cccnc2)c1 (stereo not drawn) | -0.272
33 | O=C(NCc1cccs1)C1CCC(CNS(=O)(=O)c2ccccc2)CC1 (stereo not drawn) | 10.3
34 | O=C(Cc1ccc(Br)c2ccccc12)N/N=C/c1ccccn1 | 2.35
35 | Cc1ccc(-c2cc(C(=O)Nc3ccc(S(=O)(=O)Nc4onc(C)c4C)cc3)c3ccccc3n2)cc1 | 10.9
36 | Cc1cccc(C(=O)NNC(=O)c2ccco2)c1 | 14.2
37 | Cc1ccccc1C(=O)/C=C1/SCC(=O)N1C | 10.4
38 | COCCNC(=O)C1CC(c2ccccc2C(F)(F)F)=NO1 (stereo not drawn) | 14.7
39 | O=C(NCCN1CCCCC1)Nc1ccccc1F | 13.2
40 | O=C(CN1CCN(c2ccccc2F)CC1)Nc1cccnc1Cl | 4.52
41 | Cc1ccc(NC(=O)/C(=C/c2ccco2)c2ccccc2)c(C)c1 | 10.1
42 | CS(=O)(=O)N1N=C(c2ccco2)CC1c1ccccc1Cl (stereo not drawn) | 9.15
43 | CCN(CC)/C(Sc1ccccc1)=C(/C(Cl)=C(Cl)Cl)[N+](=O)[O-] | 14.7
44 | Cn1sc(NC(=O)c2cccc(Cl)c2)nc1=O | -2.42

Row | SMILES | hERG current change (%, negative = inhibition) at 1uM [%]
45 | CCCCn1c(N)c(N(Cc2ccccc2OC)C(=O)COc2cc(C)ccc2Cl)c(=O)[nH]c1=O | 10.8
46 | COc1ccnc(CS(=O)c2nc3cc(C(O)(F)F)ccc3[n-]2)c1OC.[Na+] (stereo not drawn) | -5.82
47 | COc1cc(NC(=O)CN2CCN(Cc3ccc4c(c3)OCO4)CC2)cc(OC)c1.O=C(O)C(=O)O | -9.16
48 | O=C(Nc1ncc(Cc2cccc([N+](=O)[O-])c2)s1)c1ccco1 | -0.332
49 | CCOc1nc(NCc2ccco2)nc(Nc2ccc(OC)cc2)n1 | 1.91
50 | Cc1cc(NS(=O)(=O)c2ccc(NC(=O)C(F)(F)F)cc2)nc(C)n1 | 18.8
51 | Cc1ccc[n+](CC(=O)c2ccccc2)c1.[Br-] | 12.2
52 | COc1ccc(S(=O)(=O)N2CCCCC2)cc1NC(=O)CSc1ncnc2ccccc12 | -15
53 | CCC(C)N1C(=O)/C(=C\c2cnc(N(C)C)nc2)C(=O)NC1=S (stereo not drawn) | 11
54 | CCNc1ccc(S(=O)(=O)N(C)C)cc1NCC(=O)Nc1ccccc1Cl | 5.76
55 | COc1cc(CN2CCN(CCCc3ccccc3)C(CCO)C2)cc(OC)c1O (stereo not drawn) | -11.8
56 | Cc1ccc2cccc(OCC(=O)Nc3cccc(S(=O)(=O)N4CCCC4)c3)c2n1 | 5.26
57 | COC(=O)c1cc(CNC(=O)Cc2ccsc2)ccc1OC | 15.3
58 | O=C(NNS(=O)(=O)c1ccccc1)c1cccs1 | 12.2
59 | C=CCn1c(=O)c(C(=O)NCCc2ccccc2)c(O)c2ccccc21 | 6.41
60 | COC(=O)c1ccc(COc2ccc(/C=N/N3CCN(C)CC3)cc2)cc1 | 6.64
61 | O=C(Oc1ccc(OC(=O)c2ccncc2)cc1)c1ccncc1 | 0.316
62 | Nc1ccc(C(=O)N2N=C(c3ccc(F)cc3)CC2(O)C(F)(F)F)cc1 (stereo not drawn) | 11.7
63 | COc1ccc(N=Cc2c(O)cc(C)oc2=O)cc1 | 4.5
64 | O=[N+]([O-])c1ccccc1Oc1ccc(C(F)(F)F)cn1 | 5.66
65 | CCC(=NCCCn1ccnc1)c1c(O)n(-c2ccccc2)c(=O)[nH]c1=O | 10.5
66 | Cc1ccc(N(C)C(=O)c2cc(S(=O)(=O)N3CCc4ccccc43)cn2C)cc1 | 13.4

Row | SMILES | hERG current change (%, negative = inhibition) at 1uM [%]
67 | CCOc1ccc(S(=O)(=O)NCCC(=O)N2CC=C(c3ccccc3)CC2)cc1 | 13.9
68 | CCn1cc(CCC(=O)NCc2cccc(OC)c2OC)c2ccccc21 | 23.5
69 | O=C(CSc1nnc(CNC(=O)C23CC4CC(CC(C4)C2)C3)n1-c1ccccc1)Nc1ccccc1 | 9.14
70 | COC(=O)/C(=C\Nc1cccc(Cl)c1C)c1ncc(C(F)(F)F)cc1Cl | 10.5
71 | CCc1ccccc1S(=O)(=O)Cc1ccc(C(=O)NC2CCCC2)o1 | 13.1
72 | Cc1ccc(NC2CCCN(C(=O)c3ccoc3C)C2)cc1C (stereo not drawn) | 7.35
73 | CCOc1ccccc1NC(=O)CCS(=O)(=O)c1cccs1 | 13
74 | Cc1cccc(-c2c3c(=O)n(C)c(=O)n(C)c3cn2-c2ccc(O)cc2)c1 | 13.8
75 | Cc1nc(N2CCN(Cc3nc4ccccc4[nH]3)CC2)c2oc3ccccc3c2n1 | -24.1
76 | O=C(NCCN1CCOCC1)C(=O)NCC1OCCN1C(=O)c1ccc(Cl)cc1 (stereo not drawn) | 14.2
77 | CCOc1cc(/C=N/NC(N)=O)cc(Br)c1OCc1ccccc1 | 8.87
78 | Cc1c(S(=O)(=O)N2CCCCC2)c(=O)n(C)c(=O)n1C | 2.83
79 | Cc1cccc(Sc2nc(-c3ccccc3)ccc2C#N)c1 | 7.37
80 | CCOc1cc(/C=N/Nc2nc(C)cc(=O)[nH]2)ccc1O | 14.4
81 | Clc1ccc(-c2ccc(/C=N/Nc3nncc(-c4ccccc4)n3)o2)cc1 | 13.4
82 | COc1ccc(O)c(C2(O)C(=O)c3ccccc3C2=O)c1 | 14.2
83 | CN1CCN(C(=O)CCn2c(=O)c3cccn3c3cccnc32)CC1 | 6.03
84 | COc1ccc(CC(=O)O/N=C(\N)Cc2ccc(OC)c(OC)c2)cc1 | 9.86
85 | O=C(N/N=C\c1cc2c(cc1[N+](=O)[O-])OCO2)c1cccs1 | 11.2
86 | CCN(CC)S(=O)(=O)c1ccc2nc(NC(=O)c3cccs3)sc2c1 | 9.43
87 | CC(N=Cc1c(O)n(C2CC2)c(=S)[nH]c1=O)c1ccccc1 (stereo not drawn) | 16.9
